{
  "source": "patent US20250115926A1",
  "about": "“DEREGULATED DHS AND TYRA ENZYMES OF GRASSES ENABLE EFFICIENT PRODUCTION OF BOTH TYROSINE AND PHENYLALANINE” (Wisconsin Alumni Research Foundation, priority 2023, published 2025)",
  "molecules": {"B1": {"name": "BdDHS1b: deregulated DHS1b enzyme of Brachypodium distachyon, SEQ ID NO: 3 (protein)", "chain": "MALATNHAAAAISSGAAAPQPRRAPSFLPLKRRTICAVHAAEPSKSAAAAPAAAKTSSPSVAPEKSAIPDPKPEAPAVPAKWTVDSWRAKKALQLPEYPNAAELESALKTIEAFPPIVFAGEARHLEERLADAAMGRAFLLQGGDCAESFKEFNGNNIRDTFRVLLQMSAVLTFGGQMPVIKVGRMAGQFAKPRSDSFEVRDGVKLPSYRGDNINGDAFNEKSRIPDPQRMIRAYTQSAATLNLLRAFAMGGYAAMQRVTQWNLDFTENSEQGDRYRELAHRVDEALGFMSAAGLTLDHPVMSSTEFWTSHECLLLPYEQALTRQDSTSGLFYDCSAHMLWVGERTRQLDGAHVEFLRGVANPLGIKVSDKMNPADLVKLIDILNPTNKPGRITIITRMGAENMRVKLPHLIRAVRHAGQIVTWITDPMHGNTIKAPCGLKTRPFDSILAEVRAFFDVHEQEGSHAGGVHLEMTGQNVTECIGGSRTVTFDDLGDRYHTHCDPRLNASQSLELSFIIAEKLRKRRIRSSKLNSVLPLPTYGF", "modifications": "Brachypodium distachyon"}},
  "key": {"[1]": {"system": "Nicotiana benthamiana leaves", "experiment": "Transient expression of DHS1b orthologs in Nicotiana benthamiana leaves, LCMS (FIG. 21)", "assay_type": "in vivo", "settings": "72 hours post-infiltration", "from_the_text": "To determine whether the grass DHS1b gene encodes a deregulated DHS in other grass species besides Brachypodium distachyon, BdDHS1b orthologs from Oryza sativa (OsDHS1b) and Sorghum bicolor (SbDHS1b) were cloned into the Golden Gate plant expression vector pICH47822 under control of the RuBisCO small subunit 3B promoter from Arabidopsis thaliana.^52 A 3× human influenza hemagglutinin tag was fused in frame to the C-terminus of the DHS genes to confirm the production of heterologous DHS protein.\nAgrobacterium tumefaciens (strain GV3101) clones transformed with the OsDHS1b and SbDHS1b plant expression constructs were infiltrated into the leaves of Nicotiana benthamiana side-by-side with Agrobacterium clones expressing BdDHS1a, BdDHS1b, and the fluorescent protein YPet (negative control). The levels of phenylalanine, tyrosine, tryptophan, and three of their biosynthetic intermediates (shikimate, prephenate, and arogenate) were determined at 72 hours post-infiltration by liquid chromatography coupled to mass spectrometry (LCMS). […] On average, expression of BdDHS1b or OsDHS1b increased phenylalanine, tyrosine, and shikimate levels by 5 to 20-times compared to the YPet negative control (FIG. 21), whereas prephenate and arogenate rose to ˜100-times the control (FIG. 21). […]"}, "[2]": {"experiment": "DHS activity with combinations of effectors", "assay_type": "biochemical", "settings": "0.15 mM each effector (FIG. 19)", "method": "DHS effector molecules can have synergistic effects when combined in vitro^51. To explore this possibility, we tested the impact of different combinations of tryptophan, tyrosine, arogenate and chorismate, at 0.15 mM each, on the activity of Brachypodium DHS enzymes."}, "[3]": {"system": "Nicotiana benthamiana leaves", "experiment": "Transient expression of Brachypodium DHS in Nicotiana benthamiana leaves (AtRbcS3B promoter), UHPLC-MS", "assay_type": "in vivo", "settings": "three days after transient expression", "method": "Agrobacterium tumefaciens strain GV3101 transformed with the plant expression constructs were grown at 28° C. for 24 to 36 hours in 10 mL of LB liquid media containing the corresponding antibiotics. The saturated cultures were spun down at 3,000 g for 5 minutes at room temperature and washed twice with 3 mL of induction media (IM; 10 mM MES [2-(N-morpholino) ethanesulfonic acid] buffer pH 5.6, 0.5% glucose, 2 mM NaH2PO4, 20 mM NH4Cl, 1 mM MgSO4, 2 mM KCl, 0.1 mM CaCl2), 0.01 mM FeSO4, and 0.2 mM acetosyringone). After washing, bacteria cultures were incubated in IM for 2 to 3 hours at room temperature in the dark, pelleted at 3000 g for 5 minutes, and resuspended into 3 mL of 10 mM MES buffer pH 5.6 with 0.2 mM acetosyringone. OD600nm was adjusted to a final density of 0.25 units for pAGM4673::TyrA (FIG. 3F) and pICH47822::DHS (FIG. 5A) infiltration, or 0.5 units for pAGM4673::TyrA-DHS co-expression constructs (FIG. 5B) using 10 mM MES buffer pH 5.6 with 0.2 mM acetosyringone. For infiltration of pICH47822::DHS constructs, the Agrobacterium suspensions were adjusted to OD600nm=0.5 and mixed with an equal volume of a suspension of an Agrobacterium clone transformed with pICH4780::p19 under control of the Arabidopsis ubiquitin ligase promoter adjusted to OD600nm=0.5, resulting in a final mixture of 0.25 OD600nm units for each construct. […] Nicotiana benthamiana plants of around 4-weeks-old were infiltrated close to the end of the light period into four different spots per plant, distributed into two leaves at two infiltrations per leaf, with each individual spot corresponding with a different construct/treatment. In total, each construct was infiltrated as 5 or 6 independent replicates into different plants following a randomized pattern. Samples consisting of the infiltrated leaf limbs, without the main veins, were harvested at ˜72 hours post infiltration and subjected to HPLC or UHPLC-MS analysis (see details below).\nAround 30-40 mg of pulverized frozen plant tissue were resuspended into 400 μL of chloroform:methanol (1:2) for ˜1 hour with regular vortexing, followed by centrifugation at 20,000 g for 5 minutes at room temperature. The whole supernatant was transferred to a fresh tube, mixed with 125 μL of chloroform, 300 μL of water, and spun down at 15,000 g for 5 minutes for phase separation. The upper, aqueous phase was recovered and dried down for 4 hours to overnight in a speed-vac at 40° C. […]\nAromatic amino acids and shikimate were detected using a Vanquish Horizon Binary UHPLC (Thermo Scientific) coupled to a Q Exactive mass spectrometer (Thermo Scientific). Two microliters of the sample were analyzed using a InfinityLab Poroshell 120 HILIC-Z column (150×2.1 mm, 2.7-μm particle size; Agilent) in a gradient of 5 mM ammonium acetate/0.2% acetic acid buffer in water (solvent A) and 5 mM ammonium acetate/0.2% acetic acid buffer in 95% acetonitrile (solvent B) at a flow rate of 0.45 mL/min and column temperature of 40° C. […] Full MS spectra were recorded between 2 and 19 minutes using full scan in negative mode, under the following parameters: sheath gas flow rate, 55; auxiliary gas flow rate, 20; sweep gas flow rate, 2; spray voltage, 3 kV; capillary temperature, 400° C.; S-lens RF level, 50; resolution, 70,000; AGC target 3×10^6, maximum scan time 100 ms; scan range 70-1050 m/z. […] For ^13C labeled plant samples, ^13C-isotopologues were detected based on a mass increase of 1.00335 atomic mass units for each ^13C atom. […]"}},
  "data": [
    {"molecule": "B1", "values": [
      {"measurement": "prephenate and arogenate relative to the control", "setting": "[1]", "result": "~100", "unit": "times"},
      {"measurement": "impact of effector combinations on DHS activity", "setting": "[2]", "result": "None of the combinations tested had a significant impact"},
      {"measurement": "phenylalanine accumulation compared to tdTomato control", "setting": "[3]", "result": 18, "unit": "times"},
      {"measurement": "phenylalanine content", "setting": "[3]", "result": "~2000", "unit": "nmol/gFW"},
      {"measurement": "shikimate accumulation compared to tdTomato control", "setting": "[3]", "result": 3, "unit": "times"},
      {"measurement": "tryptophan accumulation compared to tdTomato control", "setting": "[3]", "result": 3, "unit": "times"},
      {"measurement": "tyrosine accumulation compared to tdTomato control", "setting": "[3]", "result": 10, "unit": "times"}
    ]}
  ]
}
